# Out of some 350,000 compounds screened, about 2,300 (0.66%) were called active. This list was built around the results that the source calls inconclusive (neither active nor inactive); the mix of calls is not that of the screen.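 How the source made its calls: active means mean inhibition of at least 50% after viability correction, with every replicate also passing that limit; inconclusive means mean reaches 50% but only one of two replicates passes; inactive means the rest.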
# Test: blockers of EWS/Fli transcriptional output – A673 cells, NR0B1 luciferase, luminescence, MLPCN library, primary screen (AID 651661);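 further: firefly luciferase signal divided by Alamar Blue viability fluorescence both relative to DMSO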
# Conditions: A673 NR0B1-luciferase reporter, viability-normalised; at 12.6 µM; hits give high values
row,Structure (SMILES),inhibition
1,O=C(C[C@@H]1C[C@@H]2c3cc(NC(=O)c4ccc5c(c4)OCO5)ccc3O[C@@H]2[C@@H](CO)O1)NCc1ccc(Oc2ccccc2)cc1,inconclusive: 52.5%
2,COc1ccc(CN(C)C[C@H]2OCCCC[C@H](C)Oc3ccc(NC(=O)Nc4ccccc4)cc3C(=O)N([C@H](C)CO)C[C@H]2C)cc1,active: 64.8%
3,COCCNC(=O)Cc1c(C)c2c(cc(C)c3c(C(C)(C)C)coc32)oc1=O,inconclusive: 50.5%
4,CCOc1ccc(C(=O)Nc2cccc(-c3nc4ccccc4[nH]3)c2C)cc1[N+](=O)[O-],active: 83.4%
5,Cc1nc2nc(C)n(CCN3CCOCC3)c(=O)c2c(-c2cccc([N+](=O)[O-])c2)c1C(=O)CCCCCCCCCCN1CCC(c2ccccc2)(c2ccccc2)CC1,inconclusive: 51.1%
6,CCC(C)(C)c1ccc(OCCCC[n+]2cccc(C)c2C)c(C(C)(C)CC)c1,inconclusive: 51.3%
7,O=C1C(=O)N(CCS(=O)(=O)c2ccccc2)c2ccccc21,active: 61%
8,COc1ccc(-c2c(C)nn3c(NC4CCCC4)cc(C)nc23)cc1OC,inactive: 9.84%
9,C=C1CCC[C@]2(C)C[C@H]3OC(=O)C(CN(Cc4ccc(OC)c(OC)c4)CC(C)O)[C@H]3CC12 (some centres undefined),inactive: -7.79%
10,CC1(C)N=C(N)N=C(N)N1c1ccc(OCC(=O)Nc2ccccc2)c(Cl)c1,inconclusive: 57.7%
11,COc1ccc(OC)c(Nc2nc(N)nc(CCl)n2)c1,inconclusive: 56.4%
12,CCN(CC(=O)Nc1ccccc1OC)CC(=O)Nc1ccccc1-c1ccccc1,inconclusive: 50.1%
13,C[C@H]1CCCCO[C@H](CN(C)C(=O)NC2CCCCC2)[C@@H](C)CN([C@@H](C)CO)C(=O)c2cc(NS(=O)(=O)c3ccc(F)cc3)ccc2O1,inconclusive: 55.1%
14,O=C(Nc1ccc(F)cc1F)N1CCCN(c2ccc([N+](=O)[O-])cn2)CC1,inactive: 2.62%
15,O=C(c1cccs1)N1CCN(c2nc3c(F)cc(F)cc3s2)CC1,inactive: -34.1%
16,COC(=O)C1=CN(c2ccccc2OC)C(N)=C(C#N)C1c1cccc([N+](=O)[O-])c1 (centres undefined),inconclusive: 50.5%
17,C[C@H](CO)N1C[C@H](C)[C@@H](CN(C)C(=O)C2CCC2)Oc2ncc(C#Cc3ccccc3F)cc2C1=O,inconclusive: 52.1%
18,C[C@@H]1CN([C@@H](C)CO)S(=O)(=O)c2ccc(-c3ccccc3)cc2O[C@H]1CN(C)Cc1cccnc1,active: 66.8%
19,CCN(CC)c1ccc2nc3c4ccccc4c(=O)cc-3oc2c1,inconclusive: 50%
20,CC(=O)Nc1cccc(-c2ccnc3c2CC(C(=O)NCc2ccc(F)c(F)c2)O3)c1 (centres undefined),inconclusive: 50.6%
21,CCOc1ncccc1C(=O)N1CCN(c2cc(Cl)ccc2C)CC1,inconclusive: 51.6%
22,Clc1ccccc1/C=C/c1nc(-c2ccccn2)no1,active: 66.6%
23,COc1cc2c(c(OC)c1OC)-c1ccc(OC)c(=O)cc1C(NC(=O)c1ccccc1)CC2 (centres undefined),inconclusive: 50.7%
24,CC(C)NC(=O)Nc1ccc2c(c1)C(=O)N([C@@H](C)CO)C[C@H](C)[C@@H](CN(C)S(=O)(=O)c1cccs1)O2,inactive: 0.422%
25,CCCCCc1c(Cc2ccccc2)ncn1CCc1ccccc1OC,inconclusive: 51.6%

row,Structure (SMILES),inhibition
1,COCC(=O)N1CC2(CCN(C(C)=O)CC2)c2c([nH]c3cc(OC)ccc23)[C@@H]1CO,inactive: -5.55%
2,COc1ccc(-c2cc(C(=O)N3CCCCC3)no2)cc1OC,inactive: -95.1%
3,Cc1noc(C)c1NC(=O)Nc1ccc2c(c1)CC(=O)N([C@H](C)CO)C[C@@H](C)[C@@H](CN(C)Cc1ccc(Cl)c(Cl)c1)O2,active: 61.2%
4,COc1ccccc1Nc1c2c(nc3ccccc13)CCC2,active: 61.9%
5,CC1C(=O)N(Cc2cn(CCC3OCCO3)nn2)CCS(=O)(=O)N1Cc1ccc(-c2ccc(Cl)c(Cl)c2)cc1 (centres undefined),inactive: -0.554%
6,CCc1ccc(C(=O)COC(=O)c2cc([N+](=O)[O-])ccc2N2CCOCC2)cc1,inconclusive: 47.7%
7,N#Cc1c([N+](=O)[O-])cc([N+](=O)[O-])cc1S(=O)(=O)Cc1ccccc1,inconclusive: 52.2%
8,Cc1ccc(C)c(CSc2nc3[nH]ncc3c(=O)[nH]2)c1,active: 57.5%
9,C[C@H](CO)N1C[C@H](C)[C@H](CN(C)CC2CCCCC2)OCCCC[C@H](C)Oc2ccc(NC(=O)CCCCCC(=O)Nc3ccccc3N)cc2C1=O,inconclusive: 51.4%
10,O=C(c1cc(-c2ccncc2)nc2c(Cl)cccc12)N1CCN(c2ccccc2F)CC1,inconclusive: 51.2%
11,C[C@@H]1CN([C@@H](C)CO)C(=O)c2cc(NC(=O)CCC(F)(F)F)ccc2O[C@@H](C)CCCCO[C@H]1CN(C)C,inactive: -6.19%
12,Oc1ccc(-c2csc(Nc3ncccn3)n2)cc1,inactive: -6.93%
13,O=S(=O)(NCC[C@H]1CC[C@H](NS(=O)(=O)c2ccccc2Cl)[C@@H](CO)O1)c1ccc(Cl)cc1,inactive: 4.46%
14,CCOC(=O)c1cccc(NC(=O)/C=C/c2ccc([N+](=O)[O-])cc2)c1,active: 59.9%
15,OC[C@H]1[C@@H](c2ccc(-c3cccc(F)c3)cc2)[C@@H]2CN(CCC(F)(F)F)CCCCN12,inactive: 7.57%
16,COc1ccc(S(=O)(=O)Nc2cc(SCC(=O)O)c(O)c3ccccc23)cc1,inactive: -0.998%
17,COc1ccc([C@H]2CC(=O)C=C(c3c(OC)cccc3OC)C2)cc1,active: 63.3%
18,COc1ccc(C2(O)CCN(CC(=O)Nc3nc(-c4ccccc4)cs3)CC2)cc1,inactive: 4.45%
19,Cc1cc2[nH]ncc2cc1NC(N)=S,inactive: 6.04%
20,CCCC[C@@H](CN[C@H](C)CNC)NCC1CCC(C(C)(C)C)CC1 (some centres undefined),inconclusive: 60.9%
21,CC(C)N(C(=O)COC(=O)c1ccccc1C(=O)c1ccc(Cl)c([N+](=O)[O-])c1)C(C)C,inconclusive: 53.7%
22,O=C(/C=C/c1ccc2c(c1)OCO2)N1CCN(c2ccc(Cl)cc2)CC1,inconclusive: 50.4%
23,CN1C(=O)c2cc(NC(=O)C3CCC3)ccc2OC[C@H]2O[C@@H](CC(=O)NCC3CCCCC3)CC[C@H]21,inactive: -0.212%
24,COc1ccccc1-c1ccc2n(c1=O)C[C@@H]1[C@@H](CO)[C@H](C(=O)N(C)C)N[C@H]21,inactive: -15.4%
25,C=CSc1sc(Cl)c(N(C)C)c1[N+](=O)[O-],inactive: 4.3%

row,Structure (SMILES),inhibition
1,COC(=O)N1C(=O)[C@](Cc2ccccc2)(c2ccccc2)N1C(=O)OC,inconclusive: 57.5%
2,COc1ccc(CNCCC(c2ccc(OC(C)C)cc2)c2ccccc2OC)cc1OC (centres undefined),inconclusive: 51.9%
3,Cc1ccc(S(=O)(=O)N2CCCCC2CCNC(=O)C(=O)NCc2ccccc2)cc1 (centres undefined),inconclusive: 50.6%
4,Cc1ccc(S(=O)(=O)Nc2ccc3c(c2)C(=O)N([C@@H](C)CO)C[C@@H](C)[C@H](CN(C)CC2CC2)OCCCC[C@H](C)O3)cc1,inactive: 3.21%
5,O=Nc1c2cc(-c3ccccc3)[nH]nc-2c2ccccc12,active: 62.9%
6,CN(Cc1ccccc1)S(=O)(=O)c1ccc(NC(=S)NC(=O)C2CCCC2)cc1,inconclusive: 50.6%
7,COc1cc2c3nnc(-c4ccc(F)cc4)c-3cn(Cc3ccccc3F)c2cc1OC,inconclusive: 58.6%
8,Cc1ccc(OCC(=O)Nc2ccc3c(c2)nc(CCN2CCN(C)CC2)n3C)cc1,inactive: 4.74%
9,Fc1cccc(Cl)c1/C=C/c1cnc2ccccc2n1,active: 81.7%
10,COC(=O)C[C@@H]1CC[C@H]2[C@H](COc3ccc(NC(=O)Nc4cccc(Cl)c4)cc3C(=O)N2C)O1,inconclusive: 51.4%
11,CN(C)c1cccc(/C=C(\C#N)c2ccccc2)c1,active: 55%
12,Cc1noc(C)c1S(=O)(=O)N(C)C[C@@H]1OCCCC[C@H](C)Oc2ccc(NC(=O)Nc3ccc(C(F)(F)F)cc3)cc2C(=O)N([C@H](C)CO)C[C@H]1C,inactive: -0.234%
13,CN(C)CCCn1cnc2c(c1=N)C(c1ccccc1)c1ccc3ccccc3c1O2 (centres undefined),inconclusive: 50.9%
14,C[C@@H]1CN([C@H](C)CO)C(=O)c2cc(NC(=O)Nc3cccc4ccccc34)ccc2O[C@@H](C)CCCCO[C@H]1CN(C)Cc1ccc2c(c1)OCO2,inconclusive: 56.6%
15,N#Cc1ccc(-c2ccc3c(c2)[C@H]2[C@H](CCN2S(=O)(=O)c2cccc(F)c2)[C@@H](CO)N3)cc1,inconclusive: 51.6%
16,CCCCC[C@@H](C)N1C[C@H](COCc2ccccc2)Oc2cc(N3CC[C@H](N(C)C)C3)ccc2S1(=O)=O,inconclusive: 52%
17,Nc1ccccc1N=Nc1ccccc1N,inactive: -71.9%
18,CCOc1ccc(OCc2cccc(C(=O)N(CC)CC)c2)cc1,active: 67.8%
19,CCC(=O)N1CCN(c2ccc(NC(=O)c3ccc([N+](=O)[O-])o3)cc2Cl)CC1,inconclusive: 51.8%
20,Clc1ccc2nc(CSc3ccccc3)cn2c1,inconclusive: 51.5%
21,CCCCCc1cc(=O)oc2c(C(CCN3CCCCC3)c3cc(OC)c(OC)c(OC)c3)c(OC)cc(OC)c12 (centres undefined),inconclusive: 50.6%
22,COc1ccc(C(=O)NCC(c2ccco2)N2CCc3ccccc32)cc1 (centres undefined),inconclusive: 49.8%
23,C[C@@H]1CN([C@H](C)CO)C(=O)c2cccc(NC(=O)NC3CCCCC3)c2O[C@@H]1CN(C)Cc1ccc(C(=O)Nc2ccccc2N)cc1,inconclusive: 58.4%
24,Cc1ccc(-n2nnnc2Sc2ccc(S(=O)(=O)NCCN(C)C)cc2[N+](=O)[O-])cc1,inconclusive: 51.9%
